# Reference: PubChem BioAssay AID662 (National Center for Advancing Translational Sciences (NCATS), 2007)
# Among all 71,000 compounds or so, about 1,800 (2.5%) were called active. Inconclusive results, whose numbers are uncertain, are shown with a selection of clear calls. Calls follow the shape of the dose curve; as a rule, active = well fitted activation curve with a large enough effect in the signal ratio, with a control signal flat (not every such curve was filed as active); inconclusive = small, poorly fitted or top-dose-only effect, or effect the other way, or a change in a side signal; inactive = flat fitted curve, though single readings scatter; the % refers to the signal ratio. Potencies of inconclusive entries are doubtful fits and often do not repeat.
# Assay: Cell signaling CRE-BLA (Fsk stim); as to activity change, negative = inhibition: % of control where 0% means no effect
# Conditions: CHO CRE-bla reporter (cAMP response element driving beta-lactamase), forskolin EC10, beta-lactamase ratio; activity change, negative = inhibition: at 38.2 µM (top of the series) unless noted
# Summary of the method: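 CHO CRE-bla cells, overnight plating in Opti-MEM with 0.5% dialyzed FBS; cpd titration + EC10 NKH 477, 3 h 37 °C; CCF4 2 h RT; ex 405/em 460 vs 530 ratio → %Activity, AC50.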
# Potency is read from the fitted curve at half-maximal effect; tags tell the direction and shape of the fitted curve.
Compound,"activity change, negative = inhibition",Potency
C=C(C)COc1ccc(-c2n[nH]c(C)c2-c2ccccc2OC)c(O)c1,inconclusive: -0.923%,
Cc1c(C(=O)O)c(O)cc2c1C(=O)c1c(O)c([C@@H]3O[C@H](CO)[C@@H](O)[C@H](O)[C@@H]3O)c(O)c(O)c1C2=O,inconclusive: -13.5%,
O=c1c(O)c(-c2ccc(O)cc2)oc2ccc(O)cc12,inactive: 22.1%,
Cc1ccc2[nH]c(=O)c(CN(CCO)Cc3nnnn3CCc3ccccc3)cc2c1,inactive: -5.65%,
CCOc1ccc2nc(NCCNC(=O)CC)c(C#N)cc2c1,inconclusive: -0.996%,
COc1ccccc1N1CCN(CCCNC(=O)Nc2ccccc2)CC1,,"inconclusive: 0.00316 µM [rising, full curve, poor fit]"
O=C(Nc1n[nH]c(C2CCCCC2)n1)C1CCCCC1,inconclusive: 14.5%,
Cc1ccc(CCN2CC(C(=O)NCc3ccco3)CC2=O)cc1 (stereo not drawn),inconclusive: -5.81%,
COc1cc(OC)c(NC(=O)CCc2nc(-c3cccs3)no2)cc1Cl,inconclusive: 23.5%,
CCN(CC)C(=O)CSc1nc(O)cc(=O)n1CC,inconclusive: -4.58% [at 7.6 µM],
Cc1ccc(S(=O)(=O)N2CC3CCC2C3)cc1 (stereo not drawn),inconclusive: 16.9%,
Cc1cc(-n2c(SCCC#N)nnc2-c2cccnc2)ccc1Cl,inactive: 8.18%,
COc1ccc(N2C(=O)CC(NC34CC5CC(CC(C5)C3)C4)C2=O)c(OC)c1 (stereo not drawn),inconclusive: -8.9%,
COCC(=O)N1CCC[C@@]2(CCN(Cc3ccccc3)C2)C1,inactive: -0.343%,
Cc1nonc1NC(=O)CSc1nc(C2CCCCC2)nc2ccccc12,inactive: -2.03%,
CC1(C)CC(=O)c2c(nn(-c3ccccc3)c2N)C1,inconclusive: 3.13%,
Cc1cc(O)ccc1Nc1nc(-c2sc(N)nc2C)cs1,inconclusive: -12.9%,
CC1(C)C(=O)NC2=C1C(=O)C(=O)c1ccccc12,inactive: 8.93%,
Cc1ccc(S(=O)(=O)CCC(=O)OCC(=O)N2CC(=O)Nc3ccccc32)cc1,inconclusive: 5.08%,
CNC(=O)CSc1nnc(-c2cccc(S(=O)(=O)N3CCOCC3)c2)n1-c1ccc(F)cc1,inconclusive: 10.2%,
CC(=O)N(CCO)Cc1cc2cc(C)cc(C)c2[nH]c1=O,inconclusive: -3.72%,
CCc1nnc(NC(=O)c2cc3ccccc3oc2=O)s1,inactive: 3.03%,

Compound,"activity change, negative = inhibition",Potency
CCCc1cc(=O)n2[nH]c(C)nc2n1,inactive: -2.75%,
CCc1ccc(S(=O)(=O)NCc2cn3c(C)csc3n2)s1,inactive: -7.69%,
CCOC(=O)c1ccc(NC(=O)c2ccc3c(c2)OCO3)cc1,inconclusive: -5.14%,
COc1cccc(Oc2cn[nH]c2-c2ccc(O)cc2O)c1,inactive: -4.2%,
CC(=O)CC(=O)Nc1ccc2ccccc2c1,inconclusive: -2.73% [at 7.6 µM],
CCc1ccc(NC(=O)CSc2nnc(Cc3cccn3C)n2-c2ccc(F)cc2)cc1,inconclusive: -20.3%,
Cn1cccc1C(=O)N1CCC2(CC1)CCN(c1ccccn1)CC2,inactive: -6.09%,
O=S(=O)(c1ccccc1F)N(Cc1ccco1)Cc1nnc(-c2ccccc2Br)o1,inactive: -2.36%,
COc1cc(C(=O)n2nc(C)cc2C)cc(OC)c1OC,,"inconclusive: 5.01 µM [rising, single point]"
Cn1cccc1Cc1nnc(SCC(=O)Nc2cccc(Cl)c2)n1-c1ccc(F)cc1,inconclusive: -24.2%,
CC(=O)c1cccc(-n2nnnc2SCC(=O)Nc2ccccc2N2CCCCC2)c1,,"inconclusive: 10 µM [rising, partial curve]"
COc1ccc(CSc2nc(C)cc(=O)[nH]2)cc1,inactive: 0.858%,
O=C(CCCC(=O)N(CC(=O)NC1CCCCC1)CC1CCCO1)Nc1ccccn1 (stereo not drawn),inactive: 2.48%,
Cc1ccc(C(=O)COC(=O)CCc2nc3ccccc3[nH]c2=O)cc1C,inactive: -0.212%,
Cc1ccccc1-n1nc(C(=O)O)c(C)c(C#N)c1=O,inactive: -4.09%,
NC1(C(=O)NC2(C(=O)O)CCCC2)CCCC1,inactive: 1.53% [at 7.6 µM],
CCCC(=O)Nc1nn(C)c2nc3c(C)cccc3cc12,,"inconclusive: 5.01 µM [rising, partial curve]"
COc1ccc2[nH]cc(CCNc3nc(-c4cccc(C#N)c4)nc4ccccc34)c2c1,inconclusive: 20.1%,
CCc1ccc(CCC(=O)Nc2ccc(C)cc2C)o1,inactive: -2.45%,
Cn1c(=O)c2c(nc(CN3CCCCC3)n2CCc2ccccc2)n(C)c1=O,inconclusive: 12.5%,
COc1ccc(OC)c(C2C(C(C)=O)=C(O)C(=O)N2c2ccc(O)cc2)c1 (stereo not drawn),inconclusive: -9.08%,
